# Data taken from the RNAGym collection of RNA variant scans (doi:10.7554/elife.90254).
# Read counts are not given, so values of variants with three or more changes are uncertain.
# B1: LINE1-mini (parent)
# chain: GGCAGAGCUCAACACAGCGUGGCAAAGUGGCUGUGGCUAGACUGCC
# Variants of: B1
# Experiment: self-cleavage, relative activity (ratio to wild type); higher = more cleavage; in vitro, sequencing; the parent is a self-cleaving ribozyme
row,Variant,self-cleavage
1,U9C A16U C18U,0.02
2,G7C A16C A26C,0.02
3,A11U C15U G29C C31G G35A C37A,0
4,G17U G22U A24U G36U,0.04
5,A6G C18U G30A C45G,0.33
6,G30A U32A C42A,0.06
7,C3G G5U C15U G19U G36A,0.09
8,C8A A14G G17C G44C,0.02
9,G5C G21U G33U,0.02
10,A6U A11G C45G,0.01
11,C8G A11G A12C C15A,0
12,C8A C15A C23U,0.27
13,C8G G21C C31G,0.02
14,C3U G5C G7U C13G A24C A25C G35C,0.03
15,C3A A25U G33A C37G,0.15
16,C15A G19U G40C,0.02
17,A6G G19C A26U,0.22
18,G1C C8A A25G A41U G44U,0.03
19,G2U C13U G17C G29C A39G,0.02
20,A16G U38G A41C,0
21,G21C G27U G29C,0.15
22,C15A G33C G36C,0.03
23,G7C C8A A26G,0.56
24,G1C G7A A11C,0.02

row,Variant,self-cleavage
1,C3U G5C A12U A26C,0.06
2,C10A G19C G27C C31U,0.03
3,A4G A14G C15U G27U,0.15
4,C15U C37G G44U,0.24
5,G2U G17A U43A,0.07
6,C10G A14C C15A U28G U32G C46G,0.02
7,A4G U9C A24C G29C,0.02
8,G30A C31A C37U,0.05
9,A11C G19A U28A G44U,0.02
10,G5A G19U C23A,0.03
11,U9A G21U C31G,0.02
12,C3G A14U C18U A41C C46A,0.07
13,A11U G17C U20G A24G G30A,0.02
14,U20G G21A A25C G30U A41G,0
15,U9C C31U U34C G40A,0.01
16,G22C U34G G35A,0.02
17,A11C G22A A41G,0
18,C31G G36U A39C,0.04
19,A4G G5U C10A A24C C42A U43C,0.08
20,A14C C18G C23U G33A A41U,0.23
21,G22A A24G G29U,0.91
22,C13G A25C C37G,0.02
23,G2U G19A G36A A41C U43C,0.01
24,A6C A16G C18U G29A C31A,0

row,Variant,self-cleavage
1,C10A C23U C31U U43A,0.01
2,A11C C31A G35C,0.01
3,C3A G22U G27C G35A G44A,0.27
4,C8A G33U U34C U43G,0.04
5,G21C G22C A24U A41U,1.45
6,G7U G19U A26G G29U C31A G36A,0.26
7,G2A A12U G17C,1.14
8,A4U A12G G17C C18U G21A C45G,0
9,U9A G21C U32C G33C,0.05
10,C13U G35A C37A,0.05
11,C8U U9A A16G C31U U34C,0.05
12,A11U G21A A26U,0.67
13,G1A G21U G22A,1.74
14,G2C C31A G33A C45U,0.01
15,A24G G27U C46A,0.24
16,A14C G17A U38C,0.01
17,G5U G30C U32G,0.04
18,G1C C8A G19A G21U A24U A41C,0.06
19,A6G G21C G22A U43A,0.24
20,A14G A25C G40A,0.03
21,G7U C18U G27C U28C C31G U34A,0.01
22,G5U C42A G44U C46G,0
23,C3G G5C G35A G36U C45G,0.03
24,A11G A16U G19A,0.01

row,Variant,self-cleavage
1,C13A G19A C23G U28G,0.01
2,A4U G27A C42A C46U,0.03
3,C8G G17A C18G U28G A39U,0.05
4,C15A C31A U34G,0.01
5,A11C A25U C46A,0.04
6,C13G A16G G17A,0.06
7,G1U G27C U38G C42A,0.04
8,C8G C31U A41U,0.04
9,C8G C13A A14G C15G G17A,0.04
10,G33U U34C G35A C45A,0.08
11,G5U A12G G35U,0.03
12,A4G G19U A39G,0.08
13,G7C C10U A11G A14U,0.01
14,C13G A16C G27A U38A,0.15
15,A26U G36U U38G,0.01
16,G7A A26C C31U,0.15
17,G5U C23G G33U,0.02
18,A4C G7C C15G C18U G21A G40A,0.13
19,C10A G19U U32C G40C,0.01
20,G30A G33C U34G G36U A41C U43G,0.09
21,G2A C13A C31G G35C U38A A39G,0.08
22,G1A G30U A39G,0.22
23,G17C U28A C37U,0.06
24,G1C A6U C15U A41G,0.22

row,Variant,self-cleavage
1,A12U U28A U34G G44C,0.03
2,G1A C15U G21C,0.8
3,A14C C18G U20G A24C G40C,0.01
4,G1C G27C C31G C37G C46A,0
5,C3A U28C G30C,0.79
6,U9C A12C G17A,0.02
7,A6G U9G A25U G33A G36C A41C,0
8,G2A G5U G19U U20A U28G U43C,0.02
9,A4G G21A A26G G30U U43G C45G C46U,0.02
10,C15G G27U A39G C46A,0.01
11,G7A A12G G22U C46U,0.02
12,C3A C15U U28A U43A,0.01
13,G7U U9A A11C C46G,0.04
14,C3G A4C U9G C15A,0.44
15,A12C A16G C18U A25G A26G,0.03
16,G1U C13U G27U,0.06
17,C10A C15A G21C A41C,0.01
18,A4G G30C G36A,0.07
19,G5A C23U C31U,0.42
20,C3U G5U C10G G30U,0.01
21,G7A U9G G22A G27U,0.21
22,G5U C8U U9A G22C A41U,0.15
23,C3A C31G G33A U34G,0.04
24,C15U A39G U43G C45U,0.07

row,Variant,self-cleavage
1,C8G C13U A16C U38G,0.04
2,A6G U9G G29C G36U,0.02
3,G5A A12U A26G C42U,0.08
4,A12U U32A G35A,0.02
5,G5C C13G C42G,0.11
6,G2A G30U C42A,0.21
7,C18U C37A G44U,0.12
8,A6C A14U G35U C46U,0.02
9,C10G A25G C42U,0.01
10,A6U C13A A25G,0.16
11,C8A U20G G44C C46A,0.08
12,C8U C37G A39C,0.15
13,C18U G21U G40A,0.05
14,G1C G7C A26U C31U,0.01
15,G27C G29A G30C,0.56
16,C3A A41G C42A,0.21
17,G5A A6C U9C G35C A41C,0.03
18,U9A G30C G33A U43C C45U,0.02
19,C10G C15U G33A C45G,0.02
20,A12C G22A C23G U28C C46U,0.01
21,C13A A14U G29U C45A,0.02
22,A11C G30U C31U C37U U38A,0.01
23,C15U U43C C45A,0
24,C3A G17C C18A,0.28

row,Variant,self-cleavage
1,A6U G7C G17C G35U G36A,0.08
2,G7U U9G G27U U32C C42A,0.02
3,G1U A6C G33A A41G,0.08
4,C3U G19U A39G C46A,0.06
5,A4G A11G G17C,0.03
6,C3A C37U G40C,0.14
7,G17C U38G C46A,0.01
8,G5U A6G U32G C37U,0.05
9,G5A G7C C37U,0.34
10,C3U A11C G22U G27U U38C,0.02
11,G1A G17U G22A U34C C42A,0.07
12,G1U A11C A12G,0.01
13,A4C C13G C18U G27A U32C,0.04
14,C8G A39C U43C,0.04
15,C3U C13U G44U,0.05
16,U20A G36U A41U C46G,0.15
17,A4U G7A A11G A26G G30A,0.04
18,C3G A4C C31U,0.08
19,A14G G29A G33A U38A,0.02
20,C8G C18A G29U,0.11
21,A4U G7A G27C A39U,0.83
22,C10U A16G U28G C31A G36A C37U,0.01
23,G5C U20C G40U C46U,0.02
